{"source": "the supplement of paper PMC8728848", "assay_in_all_cases": "glycan array binding signal (z-score within array); higher = stronger binding", "details_in_all_cases": "glycan notation: IUPAC condensed, linker removed", "key": {"[1]": {"target": "Gal(b1-3)GalNAc(a1-3)[Fuc(a1-2)]Gal(b1-4)GlcNAc", "method_in_brief": "(§1)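 Arrays were curated from the Consortium for Functional Glycomics database, 3228 in total, and kept only where the protein sequence was available. Binding is expressed as a within-array Z-score. This score was averaged across arrays of the same protein sequence at different concentrations or buffers and across linkers, and negative values can be read as non-binding.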"}, "[2]": {"target": "Gal(b1-3)GalNAc(b1-3)Gal(a1-4)Gal(b1-4)Glc", "method_in_brief": "as §1"}, "[3]": {"target": "Gal(b1-3)GalNAc(b1-4)Gal(b1-4)Glc", "method_in_brief": "as §1"}, "[4]": {"target": "Gal(b1-3)GalNAc(b1-4)[Neu5Ac(a2-3)]Gal(b1-4)Glc", "method_in_brief": "as §1"}, "[5]": {"target": "Gal(b1-3)GlcNAc", "method_in_brief": "as §1"}, "[6]": {"target": "Gal(b1-3)GlcNAc(a1-6)Gal(b1-4)GlcNAc", "method_in_brief": "as §1"}, "[7]": {"target": "Gal(b1-3)GlcNAc(b1-2)Man(a1-3)[Gal(b1-3)GlcNAc(b1-2)Man(a1-6)]Man(b1-4)GlcNAc(b1-4)GlcNAc", "method_in_brief": "as §1"}, "[8]": {"target": "Gal(b1-3)GlcNAc(b1-2)Man(a1-3)[Gal(b1-3)GlcNAc(b1-2)Man(a1-6)]Man(b1-4)GlcNAc(b1-4)[Fuc(a1-6)]GlcNAc", "method_in_brief": "as §1"}, "[9]": {"target": "Gal(b1-3)GlcNAc(b1-3)Gal(b1-3)GlcNAc", "method_in_brief": "as §1"}, "[10]": {"target": "Gal(b1-3)GlcNAc(b1-3)Gal(b1-4)Glc", "method_in_brief": "as §1"}, "[11]": {"target": "Gal(b1-3)GlcNAc(b1-3)Gal(b1-4)GlcNAc", "method_in_brief": "as §1"}, "[12]": {"target": "Gal(b1-3)GlcNAc(b1-3)Gal(b1-4)GlcNAc(b1-6)[Gal(b1-3)GlcNAc(b1-3)]Gal(b1-4)Glc", "method_in_brief": "as §1"}, "[13]": {"target": "Gal(b1-3)GlcNAc(b1-3)Gal(b1-4)[Fuc(a1-3)]GlcNAc(b1-6)[Gal(b1-3)GlcNAc(b1-3)]Gal(b1-4)Glc", "method_in_brief": "as §1"}, "[14]": {"target": "Gal(b1-3)GlcNAc(b1-3)GalNAc", "method_in_brief": "as §1"}, "[15]": {"target": "Gal(b1-3)GlcNAc(b1-6)Gal(b1-4)GlcNAc", "method_in_brief": "as §1"}, "[16]": {"target": "Gal(b1-3)[Fuc(a1-4)]GlcNAc", "method_in_brief": "as §1"}, "[17]": {"target": "Gal(b1-3)[Fuc(a1-4)]GlcNAc(b1-2)Man(a1-3)[Gal(b1-3)[Fuc(a1-4)]GlcNAc(b1-2)Man(a1-6)]Man(b1-4)GlcNAc(b1-4)GlcNAc", "method_in_brief": "as §1"}, "[18]": {"target": "Gal(b1-3)[Fuc(a1-4)]GlcNAc(b1-2)Man(a1-3)[Gal(b1-3)[Fuc(a1-4)]GlcNAc(b1-2)Man(a1-6)]Man(b1-4)GlcNAc(b1-4)[Fuc(a1-6)]GlcNAc", "method_in_brief": "as §1"}, "[19]": {"target": "Gal(b1-3)[Fuc(a1-4)]GlcNAc(b1-3)Gal(b1-3)[Fuc(a1-4)]GlcNAc", "method_in_brief": "as §1"}, "[20]": {"target": "Gal(b1-3)[Fuc(a1-4)]GlcNAc(b1-3)Gal(b1-4)GlcNAc", "method_in_brief": "as §1"}, "[21]": {"target": "Gal(b1-3)[Fuc(a1-4)]GlcNAc(b1-3)Gal(b1-4)[Fuc(a1-3)]GlcNAc", "method_in_brief": "as §1"}, "[22]": {"target": "Gal(b1-3)[GlcNAc(b1-6)]GalNAc", "method_in_brief": "as §1"}, "[23]": {"target": "Gal(b1-3)[Neu5Ac(a2-6)]GalNAc", "method_in_brief": "as §1"}, "[24]": {"target": "Gal(b1-3)[Neu5Ac(a2-6)]GlcNAc(b1-6)Gal(b1-4)Glc", "method_in_brief": "as §1"}, "[25]": {"target": "Gal(b1-3)[Neu5Ac(b2-6)]GalNAc", "method_in_brief": "as §1"}, "[26]": {"target": "Gal(b1-4)GalNAc(a1-3)[Fuc(a1-2)]Gal(b1-4)GlcNAc", "method_in_brief": "as §1"}, "[27]": {"target": "Gal(b1-4)GalNAc(b1-3)[Fuc(a1-2)]Gal(b1-4)GlcNAc", "method_in_brief": "as §1"}, "[28]": {"target": "Gal(b1-4)Glc", "method_in_brief": "as §1"}, "[29]": {"target": "Gal(b1-4)Glc6S", "method_in_brief": "as §1"}, "[30]": {"target": "Gal(b1-4)GlcNAc", "method_in_brief": "as §1"}, "[31]": {"target": "Gal(b1-4)GlcNAc(a1-6)Gal(b1-4)GlcNAc", "method_in_brief": "as §1"}, "[32]": {"target": "Gal(b1-4)GlcNAc(b1-2)Man(a1-3)Man(b1-4)GlcNAc(b1-4)GlcNAc", "method_in_brief": "as §1"}, "[33]": {"target": "Gal(b1-4)GlcNAc(b1-2)Man(a1-3)[Gal(b1-4)GlcNAc(b1-2)Man(a1-6)]Man(b1-4)GlcNAc(b1-4)GlcNAc", "method_in_brief": "as §1"}, "[34]": {"target": "Gal(b1-4)GlcNAc(b1-2)Man(a1-3)[Gal(b1-4)GlcNAc(b1-2)Man(a1-6)]Man(b1-4)GlcNAc(b1-4)[Fuc(a1-6)]GlcNAc", "method_in_brief": "as §1"}, "[35]": {"target": "Gal(b1-4)GlcNAc(b1-2)Man(a1-3)[GlcNAc(b1-2)Man(a1-6)]Man(b1-4)GlcNAc(b1-4)GlcNAc", "method_in_brief": "as §1"}, "[36]": {"target": "Gal(b1-4)GlcNAc(b1-2)Man(a1-3)[Man(a1-6)]Man(b1-4)GlcNAc(b1-4)GlcNAc", "method_in_brief": "as §1"}, "[37]": {"target": "Gal(b1-4)GlcNAc(b1-2)Man(a1-6)Man(b1-4)GlcNAc(b1-4)GlcNAc", "method_in_brief": "as §1"}}, "note": "The list shows a part of the results."}
{"binder": "Pp2-A2 (Arabidopsis thaliana), Q07098 (protein) MPSNGDLDRQIEQLMECKPLSEADVRTLCDQARAILVEEYNVQPVKCPVTVCGDIHGQFYDLIELFRIGGNAPDTNYLFMGDYVDRGYYSVETVSLLVALKVRYRDRLTILRGNHESRQITQVYGFYDECLRKYGNANVWKYFTDLFDYLPLTALIESQVFCLHGGLSPSLDTLDNIRSLDRIQEVPHEGPMCDLLWSDPDDRCGWGISPRGAGYTFGQDIAAQFNHNNGLSLISRAHQLVMEGFNWCQDKNVVTVFSAPNYCYRCGNMAAILEIGENMEQNFLQFDPAPRQVEPDTTRKTPDYFL", "values": [{"measurement": "glycan array binding signal (z-score)", "setting": "[1]", "value": -0.096}, {"measurement": "glycan array binding signal (z-score)", "setting": "[2]", "value": -0.113}, {"measurement": "glycan array binding signal (z-score)", "setting": "[3]", "value": -0.181}, {"measurement": "glycan array binding signal (z-score)", "setting": "[4]", "value": -0.205}, {"measurement": "glycan array binding signal (z-score)", "setting": "[5]", "value": -0.517}, {"measurement": "glycan array binding signal (z-score)", "setting": "[6]", "value": -0.59}, {"measurement": "glycan array binding signal (z-score)", "setting": "[7]", "value": 0.577}, {"measurement": "glycan array binding signal (z-score)", "setting": "[8]", "value": 0.587}, {"measurement": "glycan array binding signal (z-score)", "setting": "[9]", "value": -0.311}, {"measurement": "glycan array binding signal (z-score)", "setting": "[10]", "value": -0.239}, {"measurement": "glycan array binding signal (z-score)", "setting": "[11]", "value": -0.072}, {"measurement": "glycan array binding signal (z-score)", "setting": "[12]", "value": -0.487}, {"measurement": "glycan array binding signal (z-score)", "setting": "[13]", "value": -0.514}, {"measurement": "glycan array binding signal (z-score)", "setting": "[14]", "value": -0.25}, {"measurement": "glycan array binding signal (z-score)", "setting": "[15]", "value": -0.856}, {"measurement": "glycan array binding signal (z-score)", "setting": "[16]", "value": -0.535}, {"measurement": "glycan array binding signal (z-score)", "setting": "[17]", "value": 0.233}, {"measurement": "glycan array binding signal (z-score)", "setting": "[18]", "value": -0.488}, {"measurement": "glycan array binding signal (z-score)", "setting": "[19]", "value": 0.465}, {"measurement": "glycan array binding signal (z-score)", "setting": "[20]", "value": -0.133}, {"measurement": "glycan array binding signal (z-score)", "setting": "[21]", "value": -0.428}, {"measurement": "glycan array binding signal (z-score)", "setting": "[22]", "value": -0.491}, {"measurement": "glycan array binding signal (z-score)", "setting": "[23]", "value": -0.374}, {"measurement": "glycan array binding signal (z-score)", "setting": "[24]", "value": -0.424}, {"measurement": "glycan array binding signal (z-score)", "setting": "[25]", "value": -0.195}, {"measurement": "glycan array binding signal (z-score)", "setting": "[26]", "value": 0.189}, {"measurement": "glycan array binding signal (z-score)", "setting": "[27]", "value": -0.182}, {"measurement": "glycan array binding signal (z-score)", "setting": "[28]", "value": 0.389}, {"measurement": "glycan array binding signal (z-score)", "setting": "[29]", "value": 0.594}, {"measurement": "glycan array binding signal (z-score)", "setting": "[30]", "value": -0.453}, {"measurement": "glycan array binding signal (z-score)", "setting": "[31]", "value": -0.704}, {"measurement": "glycan array binding signal (z-score)", "setting": "[32]", "value": -0.288}, {"measurement": "glycan array binding signal (z-score)", "setting": "[33]", "value": -0.245}, {"measurement": "glycan array binding signal (z-score)", "setting": "[34]", "value": 0.609}, {"measurement": "glycan array binding signal (z-score)", "setting": "[35]", "value": -0.42}, {"measurement": "glycan array binding signal (z-score)", "setting": "[36]", "value": -0.152}, {"measurement": "glycan array binding signal (z-score)", "setting": "[37]", "value": -0.53}]}
